From the supplement of paper PMC8728848
The list shows a part of the results.

Key:
Assay in all cases: glycan array binding signal (z-score within array); higher = stronger binding
Settings in all cases: glycan notation: IUPAC condensed, linker removed
Neu5Ac(a2-6)Gal(b1-4)Glc = molecular target: Neu5Ac(a2-6)Gal(b1-4)Glc
How it was run: (§1)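 Glycan array binding is given as a within-array Z-score, which can be read as non-binding when negative. The arrays, 3228 of them, came from the Consortium for Functional Glycomics database and were retained only where the protein sequence was available. Z-scores were averaged across arrays of the same protein sequence at different concentrations or buffers and across linkers.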

[1] = molecular target: Neu5Ac(a2-6)Gal(b1-4)GlcNAc
How it was run: as §1

[2] = molecular target: Neu5Ac(a2-6)Gal(b1-4)GlcNAc(b1-2)Man(a1-3)Man(b1-4)GlcNAc(b1-4)GlcNAc
How it was run: as §1

[3] = molecular target: Neu5Ac(a2-6)Gal(b1-4)GlcNAc(b1-2)Man(a1-3)[Gal(b1-4)GlcNAc(b1-2)Man(a1-6)]Man(b1-4)GlcNAc(b1-4)GlcNAc
How it was run: as §1

[4] = molecular target: Neu5Ac(a2-6)Gal(b1-4)GlcNAc(b1-2)Man(a1-3)[GlcNAc(b1-2)Man(a1-6)]Man(b1-4)GlcNAc(b1-4)GlcNAc
How it was run: as §1

[5] = molecular target: Neu5Ac(a2-6)Gal(b1-4)GlcNAc(b1-2)Man(a1-3)[GlcNAc(b1-2)Man(b1-4)GlcNAc(b1-2)Man(a1-6)]Man(b1-4)GlcNAc(b1-4)GlcNAc
How it was run: as §1

[6] = molecular target: Neu5Ac(a2-6)Gal(b1-4)GlcNAc(b1-2)Man(a1-3)[Man(a1-6)]Man(b1-4)GlcNAc(b1-4)GlcNAc
How it was run: as §1

[7] = molecular target: Neu5Ac(a2-6)Gal(b1-4)GlcNAc(b1-2)Man(a1-3)[Neu5Ac(a2-6)Gal(b1-4)GlcNAc(b1-2)Man(a1-6)]Man(b1-4)GlcNAc(b1-4)GlcNAc
How it was run: as §1

[8] = molecular target: Neu5Ac(a2-6)Gal(b1-4)GlcNAc(b1-2)Man(a1-6)Man(b1-4)GlcNAc(b1-4)GlcNAc
How it was run: as §1

[9] = molecular target: Neu5Ac(a2-6)Gal(b1-4)GlcNAc(b1-2)Man(a1-6)[Gal(b1-4)GlcNAc(b1-2)Man(a1-3)]Man(b1-4)GlcNAc(b1-4)GlcNAc
How it was run: as §1

[10] = molecular target: Neu5Ac(a2-6)Gal(b1-4)GlcNAc(b1-2)Man(a1-6)[GlcNAc(b1-2)Man(a1-3)]Man(b1-4)GlcNAc(b1-4)GlcNAc
How it was run: as §1

[11] = molecular target: Neu5Ac(a2-6)Gal(b1-4)GlcNAc(b1-2)Man(a1-6)[Man(a1-3)]Man(b1-4)GlcNAc(b1-4)GlcNAc
How it was run: as §1

[12] = molecular target: Neu5Ac(a2-6)Gal(b1-4)GlcNAc(b1-3)Gal(b1-3)GlcNAc
How it was run: as §1

[13] = molecular target: Neu5Ac(a2-6)Gal(b1-4)GlcNAc(b1-3)Gal(b1-4)GlcNAc
How it was run: as §1

[14] = molecular target: Neu5Ac(a2-6)Gal(b1-4)GlcNAc(b1-3)Gal(b1-4)GlcNAc(b1-3)Gal(b1-4)GlcNAc
How it was run: as §1

[15] = molecular target: Neu5Ac(a2-6)Gal(b1-4)GlcNAc(b1-3)Gal(b1-4)[Fuc(a1-3)]GlcNAc(b1-3)Gal(b1-4)[Fuc(a1-3)]GlcNAc
How it was run: as §1

[16] = molecular target: Neu5Ac(a2-6)Gal(b1-4)GlcNAc(b1-3)GalNAc
How it was run: as §1

[17] = molecular target: Neu5Ac(a2-6)Gal(b1-4)GlcNAc6S
How it was run: as §1

Neu5Ac(a2-6)GalNAc = molecular target: Neu5Ac(a2-6)GalNAc
How it was run: as §1

[18] = molecular target: Neu5Ac(a2-6)GalNAc(b1-4)GlcNAc
How it was run: as §1

[19] = molecular target: Neu5Ac(a2-6)GlcNAc(b1-4)GlcNAc
How it was run: as §1

[20] = molecular target: Neu5Ac(a2-6)GlcNAc(b1-4)GlcNAc(b1-4)GlcNAc
How it was run: as §1

Neu5Ac(a2-8)Neu5Ac = molecular target: Neu5Ac(a2-8)Neu5Ac
How it was run: as §1

[21] = molecular target: Neu5Ac(a2-8)Neu5Ac(a2-3)Gal(b1-4)Glc
How it was run: as §1

[22] = molecular target: Neu5Ac(a2-8)Neu5Ac(a2-3)[GalNAc(b1-4)]Gal(b1-4)Glc
How it was run: as §1

[23] = molecular target: Neu5Ac(a2-8)Neu5Ac(a2-8)Neu5Ac
How it was run: as §1

[24] = molecular target: Neu5Ac(a2-8)Neu5Ac(a2-8)Neu5Ac(a2-3)Gal(b1-4)Glc
How it was run: as §1

[25] = molecular target: Neu5Ac(a2-8)Neu5Ac(a2-8)Neu5Ac(a2-3)[GalNAc(b1-4)]Gal(b1-4)Glc
How it was run: as §1

[26] = molecular target: Neu5Ac(a2-8)Neu5Ac(a2-8)Neu5Ac(a2-8)Neu5Ac(a2-3)[GalNAc(b1-4)]Gal(b1-4)Glc
How it was run: as §1

[27] = molecular target: Neu5Ac(b2-6)Gal(b1-4)GlcNAc
How it was run: as §1

Neu5Ac(b2-6)GalNAc = molecular target: Neu5Ac(b2-6)GalNAc
How it was run: as §1

[28] = molecular target: Neu5Ac9Ac(a2-3)Gal(b1-3)GlcNAc
How it was run: as §1

[29] = molecular target: Neu5Ac9Ac(a2-3)Gal(b1-4)GlcNAc
How it was run: as §1

[30] = molecular target: Neu5Ac9Ac(a2-6)Gal(b1-4)GlcNAc
How it was run: as §1

[31] = molecular target: Neu5Gc(a2-3)Gal(b1-3)GlcNAc
How it was run: as §1

[32] = molecular target: Neu5Gc(a2-3)Gal(b1-3)[Fuc(a1-4)]GlcNAc
How it was run: as §1

Neu5Gc(a2-3)Gal(b1-4)Glc = molecular target: Neu5Gc(a2-3)Gal(b1-4)Glc
How it was run: as §1

[33] = molecular target: Neu5Gc(a2-3)Gal(b1-4)GlcNAc
How it was run: as §1

[34] = molecular target: Neu5Gc(a2-3)Gal(b1-4)[Fuc(a1-3)]GlcNAc
How it was run: as §1

[35] = molecular target: Neu5Gc(a2-6)Gal(b1-4)GlcNAc
How it was run: as §1

Neu5Gc(a2-6)GalNAc = molecular target: Neu5Gc(a2-6)GalNAc
How it was run: as §1

[36] = molecular target: Neu5Gc(b2-6)Gal(b1-4)GlcNAc
How it was run: as §1

B1: Mincle (Homo sapiens), Q9ULY5 (protein)
chain: MNSSKSSETQCTERGCFSSQMFLWTVAGIPILFLSACFITRCVVTFRIFQTCDEKKFQLPENFTELSCYNYGSGSVKNCCPLNWEYFQSSCYFFSTDTISWALSLKNCSAMGAHLVVINSQEEQEFLSYKKPKMREFFIGLSDQVVEGQWQWVDGTPLTKSLSFWDVGEPNNIATLEDCATMRDSSNPRQNWNDVTCFLNYFRICEMVGINPLNKGKSL
glycan array binding signal (z-score) (Neu5Ac(a2-6)Gal(b1-4)Glc): -0.181
glycan array binding signal (z-score) [1]: -0.428
glycan array binding signal (z-score) [2]: -0.439
glycan array binding signal (z-score) [3]: 2.2
glycan array binding signal (z-score) [4]: 1.35
glycan array binding signal (z-score) [5]: 1.17
glycan array binding signal (z-score) [6]: -0.08
glycan array binding signal (z-score) [7]: 1.63
glycan array binding signal (z-score) [8]: 0.204
glycan array binding signal (z-score) [9]: 1.83
glycan array binding signal (z-score) [10]: 1
glycan array binding signal (z-score) [11]: -0.681
glycan array binding signal (z-score) [12]: -0.325
glycan array binding signal (z-score) [13]: -0.189
glycan array binding signal (z-score) [14]: -0.394
glycan array binding signal (z-score) [15]: -0.415
glycan array binding signal (z-score) [16]: 0.372
glycan array binding signal (z-score) [17]: -0.005
glycan array binding signal (z-score) (Neu5Ac(a2-6)GalNAc): -0.372
glycan array binding signal (z-score) [18]: -0.184
glycan array binding signal (z-score) [19]: 1.53
glycan array binding signal (z-score) [20]: 0.446
glycan array binding signal (z-score) (Neu5Ac(a2-8)Neu5Ac): -0.088
glycan array binding signal (z-score) [21]: -0.279
glycan array binding signal (z-score) [22]: -0.338
glycan array binding signal (z-score) [23]: -0.054
glycan array binding signal (z-score) [24]: -0.285
glycan array binding signal (z-score) [25]: 0.086
glycan array binding signal (z-score) [26]: -0.374
glycan array binding signal (z-score) [27]: -0.201
glycan array binding signal (z-score) (Neu5Ac(b2-6)GalNAc): -0.249
glycan array binding signal (z-score) [28]: -0.271
glycan array binding signal (z-score) [29]: -0.14
glycan array binding signal (z-score) [30]: -0.577
glycan array binding signal (z-score) [31]: -0.396
glycan array binding signal (z-score) [32]: -0.375
glycan array binding signal (z-score) (Neu5Gc(a2-3)Gal(b1-4)Glc): -0.12
glycan array binding signal (z-score) [33]: -0.239
glycan array binding signal (z-score) [34]: -0.195
glycan array binding signal (z-score) [35]: -0.461
glycan array binding signal (z-score) (Neu5Gc(a2-6)GalNAc): -0.498
glycan array binding signal (z-score) [36]: -0.036
